Screen size: about 48,000 compounds; about 550 (1.1%) were called active. Another 4% or so got no clear call; they are omitted. Cut-off read from the data, not from the text of the source: active = potency below about 15 µM; inconclusive = mostly about 16 µM to 33 µM; inactive = weaker than that. This is one part of the list.
target: Lysosomal acid glucosylceramidase (Homo sapiens) (UniProt P04062); assay: Glucocerebrosidase; conditions: purified enzyme, resorufin glucoside fluorescence (screen aimed at inhibitors), 20 min;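 note: the screen sought inhibitors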
Sequence of UniProt P04062 (P04062 whole entry, looked up): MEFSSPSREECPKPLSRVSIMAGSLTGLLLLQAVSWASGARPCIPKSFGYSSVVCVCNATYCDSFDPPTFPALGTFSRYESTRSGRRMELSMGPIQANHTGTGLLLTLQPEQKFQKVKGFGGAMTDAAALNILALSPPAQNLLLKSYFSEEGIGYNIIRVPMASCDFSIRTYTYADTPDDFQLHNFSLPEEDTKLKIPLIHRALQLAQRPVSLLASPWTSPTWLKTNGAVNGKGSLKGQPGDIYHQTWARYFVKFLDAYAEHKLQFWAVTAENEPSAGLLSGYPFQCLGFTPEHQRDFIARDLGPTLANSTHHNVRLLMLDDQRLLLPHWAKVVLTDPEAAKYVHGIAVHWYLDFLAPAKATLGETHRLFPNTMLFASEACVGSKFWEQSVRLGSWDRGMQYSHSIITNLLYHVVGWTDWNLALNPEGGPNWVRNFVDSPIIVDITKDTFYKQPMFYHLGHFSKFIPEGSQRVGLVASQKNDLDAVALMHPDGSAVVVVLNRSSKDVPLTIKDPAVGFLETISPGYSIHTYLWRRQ
Procedure, shortened: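 Wild-type enzyme at 0.2 nM final in 50mM citric acid/KH2PO4, 10mM sodium taurocholate, 0.01% tween-20, pH 5.9, with resorufin beta-D-glucopyranoside at 30 uM final. Compounds titrated, 20 min at RT, red fluorescence read; AC50 from titration.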
Potency is the fitted concentration of half-maximal effect.

Potency, inactive:
Cc1cc(C(=O)Nc2cccnc2)no1 > 76.9 µM, CCOC(=O)c1cc(-c2cccs2)nn1CCC#N > 76.9 µM, O=C(Cn1nc(-c2ccccc2)ccc1=O)NCCN1CCN(Cc2ccccc2)CC1 > 76.9 µM, CCCC(c1nnnn1CCOC)N1CCN(c2cccc(OC)c2)CC1 (stereo not given) > 76.9 µM, c1ccc(-c2nnc(CSc3nnc(-c4cccs4)o3)o2)cc1 > 76.9 µM, O=C(CSc1nnc(-c2ccncc2)n1C1CCCCC1)Nc1ccccc1 > 76.9 µM, COC(=O)C1CCN(C(=O)COC(=O)Cn2cnnn2)CC1 > 76.9 µM, Cc1ccc(F)cc1NC(=O)c1cccc2nccnc12 > 76.9 µM, Cc1nn(C)c(C)c1S(=O)(=O)N1CCc2ccccc21 > 76.9 µM, CCOC(=O)N1CCN(C(=O)c2cn(-c3ccc(C)c(C)c3)c(=O)c3ccccc23)CC1 > 76.9 µM, COc1ccc(Nc2nc(N)nc(SCc3nnc(C)s3)n2)cc1 > 76.9 µM, COc1ccc(CCNc2oc(-c3ccccc3OC)nc2C#N)cc1OC > 76.9 µM, O=C(c1ccc(COc2ccc3c(c2)CCC3)o1)N1CCN(c2ccccc2)CC1 > 76.9 µM, CCCn1c2c(c(O)c(C(=O)Nc3nccs3)c1=O)CCCC2 > 76.9 µM, Cc1ccc(NCc2nnc(SCC(=O)Nc3cccc(O)c3)n2CC2CCCO2)c(C)c1 (stereo not given) > 76.9 µM, CCc1ccc2[nH]c(=O)c(C(c3nnnn3CC3CCCO3)N3CCN4CCCC4C3)cc2c1 (stereo not given) > 76.9 µM, CC(C)(C)OC(=O)NCCc1nnc(SCC(N)=O)o1 > 76.9 µM, Cc1noc(NS(=O)(=O)c2ccc(N/C=C/C(=O)c3ccc4c(c3)OCO4)cc2)c1C > 76.9 µM, C=CCn1c(SCc2ccccc2C#N)nnc1-c1ccccc1O > 76.9 µM, O=C1c2ccccc2C(=O)N1CCCCSc1nnc2ccccn12 > 76.9 µM, CCOC(=O)C1CCCN(S(=O)(=O)c2ccc(C)cc2)C1 (stereo not given) > 76.9 µM, NC(=O)c1nsc(C(=O)N(CC(=O)NCc2ccc3c(c2)OCO3)C2CCCCC2)c1N > 76.9 µM, COc1ccc(C2C(C(=O)N3CCOCC3)CCC(=O)N2c2ccc(OC)cc2)cc1 (stereo not given) > 76.9 µM, COc1ccc(COC(=O)c2n[nH]c3ccccc23)cc1F > 76.9 µM, CN(C)S(=O)(=O)c1cccc(C(=O)NCC2CCCO2)c1 (stereo not given) > 76.9 µM, CCCn1c(SCC(=O)Nc2ccccc2C(=O)OCC)nc2c1c(=O)n(C)c(=O)n2C > 76.9 µM, N#CCCN(C1CCCCC1)S(=O)(=O)CCOc1ccccc1 > 76.9 µM, COc1cc(-c2nnc(-c3ccncc3)o2)ccc1OCc1ccccc1 > 76.9 µM, COc1cc(S(=O)(=O)N2CCN(c3ccccc3F)CC2)ccc1Cl > 76.9 µM, CCOCCCn1c(SCC(=O)Nc2ccc(C(N)=O)cc2)nc2ccccc2c1=O > 76.9 µM, O=C1CN2C(=N1)N(Cc1ccccc1)c1ccccc12 > 76.9 µM, C=CCn1c(N)c(C(=O)NCc2ccco2)sc1=S > 76.9 µM, COc1ccc(S(=O)(=O)N(C)CC(=O)NCc2cccnc2)cc1 > 76.9 µM, Cc1ccc(Cn2c(Sc3ncccn3)nc3c2c(=O)[nH]c(=O)n3C)cc1 > 76.9 µM, N#CC(c1nc2ccccc2nc1N1CCCC1)S(=O)(=O)c1cccs1 (stereo not given) > 76.9 µM, O=C(O)CCC1COc2ccccc2O1 (stereo not given) > 76.9 µM, COC(=O)c1cn(C(=O)c2ccccc2F)nc1N > 76.9 µM, CCCOc1nc(N)c(C#N)c(-c2ccccc2F)c1C#N > 76.9 µM, COc1cc(C(=S)N2CCCC2)ccc1O > 76.9 µM, CCOC(=O)C(C)Sc1nc2c([nH]c3ccccc32)c(=O)n1C (stereo not given) > 76.9 µM, COc1ccc(CCNC(=O)c2[nH]c(C)c(C(C)=O)c2C)cc1OC > 76.9 µM, COc1cc(NC(=O)C(C)C)ccc1NC(=O)c1ccco1 > 76.9 µM, COc1ccc(CN2CC(C(=O)NCCC3=CCCCC3)CC2=O)cc1 (stereo not given) > 76.9 µM, NC(=O)C[C@@H]1N[C@]2(C(=O)Nc3ccccc32)[C@@H]2C(=O)N(c3cc(C(F)(F)F)ccc3Cl)C(=O)[C@H]12 > 76.9 µM, CCOC(=O)c1ccc(N2C(=O)c3n[nH]c(C)c3C2c2cccnc2)cc1 (stereo not given) > 76.9 µM, COc1ccc(C2(O)CCN(Cc3nnnn3Cc3ccc(F)cc3)CC2)cc1 > 76.9 µM, O=C(CN1C(=O)C2C3c4ccccc4C(c4ccccc43)C2C1=O)N1CCOCC1 (stereo not given) > 76.9 µM, Cc1nnc(NC(=O)Oc2ccccc2)s1 > 76.9 µM, Cc1cc(C)nc(SCc2nnc(SCC(=O)OC3CCCCC3)o2)n1 > 76.9 µM, COc1cccc2cc(C(=O)N3CCN(C/C=C/c4ccccc4)CC3)c(=O)oc12 > 76.9 µM, Cc1cc2cc(CCNC(=O)C(C)C)c(=O)[nH]c2cc1C > 76.9 µM, CC(=O)c1c(N)c(C#N)c(C)n1-c1ccc(Br)cc1 > 76.9 µM, Cc1ccc(-n2c(=O)cc(N3CC(C)CC(C)C3)[nH]c2=O)cc1 (stereo not given) > 76.9 µM, O=C(O)Cn1c(-c2cscn2)nc2ccccc21 > 76.9 µM, CN(C)CCn1c(C(=O)Nc2ccccc2)cc2ccccc21 > 76.9 µM, OC(CNCC(c1ccco1)N1CCCCC1)c1ccccc1 (stereo not given) > 76.9 µM, Cc1[nH]nc2c1C1(CCC(c3ccccc3)CC1)C(C#N)=C(N)O2 (stereo not given) > 76.9 µM, Cc1occc1-c1nnc(SCC(=O)c2ccc(Cl)cc2)n1CC1CCCO1 (stereo not given) > 76.9 µM, O=C(c1cccs1)c1no[n+]([O-])c1C(=O)c1cccs1 > 76.9 µM, COc1ccc(N(CC(O)Cn2nnc3ccccc32)S(=O)(=O)c2ccc(C)cc2)cc1 (stereo not given) > 76.9 µM, O=C(CSc1nc2ccccc2s1)N1CCN(C(=O)c2ccco2)CC1 > 76.9 µM, CC(C)=CC(=O)OCC(=O)Nc1ccc(F)cc1Cl > 76.9 µM, Clc1ccc(NCc2nnc3n2CCCCC3)cc1 > 76.9 µM, COc1ccc(NC(=O)c2ccccc2NS(C)(=O)=O)cc1OC > 76.9 µM, COc1ccc(NC(=O)CCC2COc3ccccc3O2)c(OC)c1 (stereo not given) > 76.9 µM, CCC12CN3CC(CC)(CN(C1)C31C(=O)N(C)c3ccc(C)cc31)C2=O (stereo not given) > 76.9 µM, CCC(C)NC(=O)CSc1nc2ccc(N3CCOCC3)cc2c(=O)n1CCc1ccccc1 (stereo not given) > 76.9 µM, CCC(Oc1ccccc1)C(=O)Nc1nc2ccccc2[nH]1 (stereo not given) > 76.9 µM, COC(=O)c1cccc(NC(=O)CSc2ncn[nH]2)c1 > 76.9 µM, CCn1[nH]c(=O)c(=Nc2c(C)n(C)n(-c3ccccc3)c2=O)cc1-c1ccc(Cl)cc1 > 76.9 µM, CCc1nnc(NC(=O)CCC(=O)NC2CCCCC2)s1 > 76.9 µM, COCCCNc1nc2c(c(=O)[nH]c(=O)n2C)n1CC(O)COc1cccc(C)c1 (stereo not given) > 76.9 µM, COc1ccc(CCN2CC(C(=O)O)CC2=O)cc1 (stereo not given) > 76.9 µM, CCOc1cccc2cc(-c3nnc(-c4ccccc4)o3)c(=O)oc12 > 76.9 µM, COc1ccc(Br)cc1CNC(=O)C1CCCN(c2nc3ccccc3o2)C1 (stereo not given) > 76.9 µM, CCC(C)NC(=O)c1ccccc1C(=O)NC(C)CC (stereo not given) > 76.9 µM, O=C(C1=C(O)C(=O)N(Cc2ccco2)C1c1cccnc1)c1cc2ccccc2o1 (stereo not given) > 76.9 µM, O=C(Nc1ccc(S(=O)(=O)N2CCCC2)cc1Cl)C1=COCCO1 > 76.9 µM, C=CCOC(=O)COc1ccc2c(C)c(CC)c(=O)oc2c1 > 76.9 µM, COc1cccc(C2(O)CCN(C(=O)c3cccs3)CC2)c1 > 76.9 µM, O=C(NC1CCCCC1)NC1CC2CCC(C1)N2C(=O)NCc1ccccc1 (stereo not given) > 76.9 µM, C(=N\n1cnnc1)/C1CCCCC1 > 76.9 µM, Cc1ccc(Cn2ccc(NC(=O)c3cc(-c4ccc5c(c4)OCO5)on3)n2)cc1 > 76.9 µM, CN(CC(=O)NCc1ccco1)S(=O)(=O)c1ccc2c(c1)n(C)c(=O)c(=O)n2C > 76.9 µM, CC(C)C(NC(=O)c1ccco1)C(=O)NCC(c1ccco1)N1CCCCC1 (stereo not given) > 76.9 µM, CCOc1ccccc1N(C(=O)c1ccco1)C(C(=O)NC1CCCC1)c1cccnc1 (stereo not given) > 76.9 µM, Cc1ccc(N2CC(C(=O)NC3CCSC3=O)CC2=O)cc1 (stereo not given) > 76.9 µM, Cc1noc(C)c1C(=O)Nc1ccc2c(c1)CCC2 > 76.9 µM, CC(C)OCCCNc1ncnc2c1[nH]c1ccc(F)cc12, Cc1oc(C)c2c(=O)ccc3c(c12)OC(N)=C(C#N)C3c1ccccc1Cl (stereo not given) > 76.9 µM

— PubChem BioAssay AID360 (National Center for Advancing Translational Sciences (NCATS), 2006)
